Over roughly 81,000 sequences, “one-hybrid fitness for binding NBS DNA” has its median near -0.1; the highest 2% begin near 0.36. The list shows a part of the results.
B1: Caulobacter ParB omega fusion; a variant is named by its letters at X, in order, B8GW30 (parent)
chain: MESVVVGEPGMSEGRRGLGRGLSALLGEVDAAPAQAPGEQLGGSREAPIEILQRNPDQPRRTFREEDLEDLSNSIREKGVLQPILVRPSPDTAGEYQIVAGERAWRAAQRAGLKTVPIMVRELDDLAVLEIGIIENVQRADLNVLEEALSYKVLMEKFERTQENIAQTIGKSXSHVANXMRLLXLPDEVQSYLVSGELTAXHARAIAAAADPVALAKQIIEGGLSVRETEALARKAPNLSAGKSKGGRPPRVKDTDTQALESDLSSVLGLDVSIDHRGSTGTLTITYATLEQLDDLCNRLTRGI

Variants of: B1
Experiment: one-hybrid fitness for binding NBS DNA (the Noc-binding site; scaled: cognate 1, non-cognate 0); higher = stronger binding
Conditions: with NBS DNA site
Summary of the method: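 On M9-minus-histidine containing 0.1 mM IPTG and 5 mM 3-AT, E. coli USO cells with a HIS3 reporter, site 19 bp from the promoter, grew 48 hours at 37°C to select Caulobacter ParB libraries randomised at four specificity codons. Plasmids from before and after were Illumina-sequenced, with three replicate libraries pooled and variants under 10 reads left out. Fitness is the log change in variant-to-wild-type read ratio, rescaled against cognate and non-cognate.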

| Variant | one-hybrid fitness for binding NBS DNA |
| --- | --- |
| QSKC | 0.367 |
| TNVR | ≤ 0.2 |
| ANKM | ≤ 0.2 |
| TCYK | ≤ 0.2 |
| MKFT | ≤ 0.2 |
| NMYI | ≤ 0.2 |
| RLMN | ≤ 0.2 |
| WRRA | ≤ 0.2 |
| ERKV | ≤ 0.2 |
| LKQR | ≤ 0.2 |
| MGTG | ≤ 0.2 |
| RSWP | ≤ 0.2 |
| QPWY | ≤ 0.2 |
| DPTI | ≤ 0.2 |
| WTHP | ≤ 0.2 |
| DPVG | ≤ 0.2 |
| FRLR | ≤ 0.2 |
| QCIV | ≤ 0.2 |
| FYKL | ≤ 0.2 |
| REPT | ≤ 0.2 |
| HSKE | ≤ 0.2 |
| IRES | ≤ 0.2 |
| DVFN | ≤ 0.2 |
| WARM | ≤ 0.2 |
| QKSD | ≤ 0.2 |

| Variant | one-hybrid fitness for binding NBS DNA |
| --- | --- |
| CLQR | ≤ 0.2 |
| FDIR | ≤ 0.2 |
| PWLK | ≤ 0.2 |
| VCQG | ≤ 0.2 |
| YATI | ≤ 0.2 |
| HTGR | ≤ 0.2 |
| YACC | ≤ 0.2 |
| QRPP | ≤ 0.2 |
| YTVW | ≤ 0.2 |
| MSNN | ≤ 0.2 |
| LGNR | ≤ 0.2 |
| TPDW | ≤ 0.2 |
| KCTV | ≤ 0.2 |
| HIYA | ≤ 0.2 |
| PLDF | ≤ 0.2 |
| HQTY | ≤ 0.2 |
| KALW | ≤ 0.2 |
| SRAP | ≤ 0.2 |
| VCSD | ≤ 0.2 |
| MQTC | ≤ 0.2 |
| VRDT | ≤ 0.2 |
| NFAC | ≤ 0.2 |
| YLWR | ≤ 0.2 |
| VILP | ≤ 0.2 |
| FRPE | ≤ 0.2 |

| Variant | one-hybrid fitness for binding NBS DNA |
| --- | --- |
| PNWT | ≤ 0.2 |
| QITK | ≤ 0.2 |
| RQHP | ≤ 0.2 |
| GPRP | ≤ 0.2 |
| HDMC | ≤ 0.2 |
| DYCS | ≤ 0.2 |
| MSRE | ≤ 0.2 |
| VKST | ≤ 0.2 |
| FHPR | ≤ 0.2 |
| PAVP | ≤ 0.2 |
| TNIC | ≤ 0.2 |
| QCSS | 0.449 |
| LPVP | ≤ 0.2 |
| IQKV | ≤ 0.2 |
| NFAY | ≤ 0.2 |
| NKAA | ≤ 0.2 |
| MTHR | ≤ 0.2 |
| RCFW | ≤ 0.2 |
| FSTS | ≤ 0.2 |
| NGKR | ≤ 0.2 |
| QQFW | ≤ 0.2 |
| VVSV | ≤ 0.2 |
| WTHS | ≤ 0.2 |
| KRAP | ≤ 0.2 |
| NHPW | ≤ 0.2 |

| Variant | one-hybrid fitness for binding NBS DNA |
| --- | --- |
| REHC | ≤ 0.2 |
| WTDW | ≤ 0.2 |
| QTCA | 0.378 |
| CCLR | ≤ 0.2 |
| HQGG | ≤ 0.2 |
| QYSA | 0.201 |
| MPRT | ≤ 0.2 |
| DPPW | ≤ 0.2 |
| RGHC | ≤ 0.2 |
| KRAH | ≤ 0.2 |
| PHMH | ≤ 0.2 |
| LHKC | ≤ 0.2 |
| AAVG | ≤ 0.2 |
| PRWV | ≤ 0.2 |
| FSAL | ≤ 0.2 |
| QVCK | ≤ 0.2 |
| EVWS | ≤ 0.2 |
| ISGM | ≤ 0.2 |
| WMML | ≤ 0.2 |
| RNVW | ≤ 0.2 |
| VDCG | ≤ 0.2 |
| ALMW | ≤ 0.2 |
| PCCG | ≤ 0.2 |
| LNTN | ≤ 0.2 |
| TDVT | ≤ 0.2 |

| Variant | one-hybrid fitness for binding NBS DNA |
| --- | --- |
| HRYK | ≤ 0.2 |
| LIDL | ≤ 0.2 |
| DPRI | ≤ 0.2 |
| TTYS | ≤ 0.2 |
| LRMT | ≤ 0.2 |
| GSIY | ≤ 0.2 |
| EFRR | 0.249 |
| RITC | ≤ 0.2 |
| DANR | ≤ 0.2 |
| KIYC | ≤ 0.2 |
| TMLS | ≤ 0.2 |
| GAKH | ≤ 0.2 |
| RDSL | ≤ 0.2 |
| AQCS | ≤ 0.2 |
| ENDY | ≤ 0.2 |
| SFST | ≤ 0.2 |
| EFMA | ≤ 0.2 |
| PRRP | ≤ 0.2 |
| NEHF | ≤ 0.2 |
| FTKT | ≤ 0.2 |
| LNIC | ≤ 0.2 |
| HISG | ≤ 0.2 |
| TGWV | ≤ 0.2 |
| QHLN | ≤ 0.2 |
| QTTQ | 0.242 |

| Variant | one-hybrid fitness for binding NBS DNA |
| --- | --- |
| LLEW | ≤ 0.2 |
| QLSA | ≤ 0.2 |
| ERYY | ≤ 0.2 |
| SVGA | ≤ 0.2 |
| RSGF | ≤ 0.2 |
| FQHV | ≤ 0.2 |
| IYLS | ≤ 0.2 |
| NTCR | ≤ 0.2 |
| LPSI | ≤ 0.2 |
| SVAT | ≤ 0.2 |
| RKIC | ≤ 0.2 |
| LLEA | ≤ 0.2 |
| QQLS | 0.373 |
| MLDG | ≤ 0.2 |
| YMYP | ≤ 0.2 |
| WMCC | ≤ 0.2 |
| TAPD | ≤ 0.2 |
| AVHC | ≤ 0.2 |
| DKGM | ≤ 0.2 |
| WSCI | ≤ 0.2 |
| LWST | ≤ 0.2 |
| KSNE | ≤ 0.2 |
| ICTV | ≤ 0.2 |
| VKPF | ≤ 0.2 |
| PDAA | ≤ 0.2 |

| Variant | one-hybrid fitness for binding NBS DNA |
| --- | --- |
| RSIC | ≤ 0.2 |
| QYIK | ≤ 0.2 |
| DDQF | ≤ 0.2 |
| TRND | ≤ 0.2 |
| THLS | ≤ 0.2 |
| WDIR | ≤ 0.2 |
| QLCD | ≤ 0.2 |
| GWYC | ≤ 0.2 |
| SDPY | ≤ 0.2 |
| VMLN | ≤ 0.2 |
| YSQY | ≤ 0.2 |
| HGAH | ≤ 0.2 |
| VTPD | ≤ 0.2 |
| PLNG | ≤ 0.2 |
| CFTS | ≤ 0.2 |
| RFFW | ≤ 0.2 |
| RASA | ≤ 0.2 |
| TSKI | ≤ 0.2 |
| ICTC | ≤ 0.2 |
| GCSF | ≤ 0.2 |
| LLKL | ≤ 0.2 |
| KGIS | ≤ 0.2 |
| SYAI | ≤ 0.2 |
| AHVY | ≤ 0.2 |
| APVV | ≤ 0.2 |

| Variant | one-hybrid fitness for binding NBS DNA |
| --- | --- |
| TKKR | 0.281 |
| RDHS | ≤ 0.2 |
| PKHT | ≤ 0.2 |
| QYNS | 0.437 |
| RWVL | ≤ 0.2 |
| AHII | ≤ 0.2 |
| RAGM | ≤ 0.2 |
| GRDT | ≤ 0.2 |
| VCSW | ≤ 0.2 |
| NRSR | ≤ 0.2 |
| VWWR | ≤ 0.2 |
| QLCT | 0.345 |
| VDAT | ≤ 0.2 |
| EQNF | ≤ 0.2 |
| RGYL | ≤ 0.2 |
| RHAR | 0.427 |
| QRHK | 0.432 |
| RIKK | ≤ 0.2 |
| VDAD | ≤ 0.2 |
| SNEY | ≤ 0.2 |

From a collection of fitness landscapes (doi:10.1016/j.celrep.2020.107928)
